The conditions of the data set: Homo sapiens, pH 6.6, DSC, GuHCl/ADA 0.7 M, reversible: yes.

With “Fibroblast growth factor 1 wild type (chain not printed)”, the unfolding free energy (25 °C, GdnHCl) was 4.97 kcal/mol. The “unfolding enthalpy (calorimetric)” value (Thermal) was found to be 61.5 kcal/mol.

Source of the values: FireProtDB (doi:10.1021/bi9927742).
